The record followed here is article PMC10668032.

The other results are listed elsewhere or left out. At the low end of the ranking the order means little.

The target of the experiment is SIX1-Q177R homeodomain (UniProt Q15475). Kind of experiment: universal protein binding microarray. As to conditions: Universal all-10-mer PBM (8x60K, AMADID 030236), 300 nM GST-tagged protein, Alexa Fluor 488 anti-GST; buffer, salt, pH and temperature not stated; high values mean tight binding; most listed sequences are background and not binding sites; double strand, one strand shown.
For the sequence AAGGCAAC, the binding signal was -0.0857 E-score. The value for AGAGATCA was -0.147 E-score; that for GGAACCTA was 0.046 E-score.

On to GCCCTGCC, for which the binding signal is -0.0386 E-score. The value for CTTAGAAC was -0.0268 E-score. The value for CTCGGGCA was 0.0961 E-score; that for TAACTGGA was -0.171 E-score; that for GAATACGA was -0.0332 E-score. Consider GCCAGTTA, for which the binding signal is -0.0445 E-score. The same measure for AGTCCGAG: -0.143 E-score; for CACAAACA: 0.0223 E-score; for TCGCACGA: 0.107 E-score. The same measure for ACTGGAAT: -0.0476 E-score; for ACTGCGCG: -0.021 E-score; for CATGGTCA: -0.133 E-score. For the sequence CTTCCGTA, the binding signal is -0.199 E-score. The value for AATGTACT was -0.0697 E-score.

For the sequence CGGCTCCA, the binding signal is 0.159 E-score. For the sequence CGGCTGGA, the binding signal is -0.0793 E-score. The same measure for AGACATTC: -0.0502 E-score. The same measure for GCCACGAC: 0.0193 E-score. The same measure for ACACGATA: 0.375 E-score; for AGTTCGAT: -0.122 E-score. On to GAATGCGA, for which the binding signal was -0.26 E-score. AAGATTGG: the binding signal is -0.199 E-score. The value for ATATATGA was -0.0427 E-score. The value for GAAGACTC was -0.028 E-score; that for AATCAGTG was 0.0927 E-score; that for CAGCAGGC was -0.119 E-score. The value for GACTTGCC was -0.2 E-score; that for ACGAGCTA was -0.13 E-score; that for AACGGTCG was -0.0731 E-score.

Consider GATTATTA, for which the binding signal is -0.0231 E-score.

Consider CGTGGAGA, for which the binding signal was -0.237 E-score.

For CGTGCCAG, the binding signal was -0.0596 E-score.

Take ATGATTTG: the binding signal was -0.00908 E-score.

For the sequence ACATTAAT, the binding signal is -0.159 E-score.

For AGACGAGA, the binding signal was -0.116 E-score. Take ACGTCAGC: the binding signal was -0.0368 E-score. The value for AGCTAGTA was -0.187 E-score; that for AAGCGCCA was -0.0351 E-score. The same measure for CCACGGGC: -0.0636 E-score.

As for TATCAGGA, the binding signal was -0.024 E-score. The value for GCCCTGCA was 0.0992 E-score. The same measure for ACCCGTCC: 0.0968 E-score; for ACTTAACC: 0.0139 E-score; for AGAACCGG: -0.0382 E-score. The value for AGCGCTAT was -0.263 E-score; that for ATCCGTCC was -0.128 E-score; that for CGCCAGTA was -0.219 E-score.

Regarding CATGGCGG, the binding signal is -0.192 E-score.

With ACAGCAGC, the binding signal was -0.251 E-score. Take AGGGGCTG: the binding signal was -0.115 E-score. The same measure for GTCCCCAC: 0.0192 E-score; for AAACCGAC: -0.0141 E-score; for AAGCAGAG: -0.204 E-score.

For CAACCCTC, the binding signal is -0.0241 E-score. As for AGGCATCG, the binding signal is -0.249 E-score.

Consider AAGCACTC, for which the binding signal turned out to be 0.0646 E-score. Turning to AATCGAAT, the binding signal was -0.179 E-score. The value for CTCGAGTA was 0.164 E-score. The same measure for AAACGCTC: -0.0275 E-score; for ATCGACTG: -0.11 E-score; for ATGGACAG: -0.0632 E-score. In the case of TGTTAACA, the binding signal was 0.389 E-score.

For the sequence TCCGGGAA, the binding signal was -0.0882 E-score. CTGCTCCC: the binding signal is -0.0545 E-score. The value for ACTTTAAA was -0.2 E-score; that for AGTCGACT was 0.0787 E-score; that for CCGCACCC was 0.192 E-score. The same measure for AACAACGA: -0.022 E-score; for ACGCTTTC: -0.138 E-score; for GAGCCTTA: -0.254 E-score. The value for TTCGCAAA was 0.0247 E-score; that for GCCGCCCA was -0.103 E-score.

With CCCGTCTA, the binding signal is 0.144 E-score. The value for GATCCGGA was 0.162 E-score. The same measure for AATACGGT: -0.0437 E-score. As to GTTGGCCA, the binding signal is -0.0152 E-score.

With AATTGACA, the binding signal was determined as 0.125 E-score. The value for GACGCGGC was -0.0177 E-score; that for TACAACGA was -0.136 E-score; that for ACGCATGA was -0.121 E-score.

Turning to CCTGCGAC, the binding signal was -0.0334 E-score. The same measure for GAAGGGTC: -0.0245 E-score. The same measure for TCGTGAAA: -0.14 E-score; for AATTGCTG: -0.196 E-score. The value for CCGCGCAA was 0.143 E-score; that for AGTGCGAC was -0.121 E-score.

For the sequence ATGGGGTG, the binding signal turned out to be 0.342 E-score. The value for CCGTACAG was -0.157 E-score. The same measure for AGCGATTA: -0.0578 E-score; for CGGTATAC: 0.165 E-score. The value for CTTGCTAC was -0.0389 E-score; that for AGTGCACG was 0.0532 E-score. Regarding CCACAGCC, the binding signal was -0.0112 E-score. The same measure for CATTTGAG: -0.0665 E-score. The same measure for AGGTTTAG: -0.0327 E-score. Take AGGGCCTA: the binding signal turned out to be 0.0161 E-score. The same measure for CCTTCAAG: -0.0806 E-score; for AATCGCGC: -0.0968 E-score. The same measure for AAGCCGCT: -0.341 E-score. As to AAATATCA, the binding signal is -0.04 E-score. Take CCCCGGTA: the binding signal is 0.284 E-score.

Consider CCCCGTCG, for which the binding signal is 0.161 E-score. The same measure for ACTTTTTG: -0.0857 E-score. Take CACTTCCC: the binding signal was determined as 0.125 E-score. For CGTGAAAA, the binding signal was -0.257 E-score. Consider AGTCTTAC, for which the binding signal was -0.00104 E-score. The same measure for ACATTTTC: -0.149 E-score; for ACACTCCA: 0.373 E-score.

With CCCATACA, the binding signal was 0.192 E-score.

With CCGAGACA, the binding signal was 0.274 E-score. The same measure for GCGGGACC: -0.118 E-score; for GATCTGAC: -0.0697 E-score. Consider CTTCCAAG, for which the binding signal was -0.0791 E-score. Consider CACCAGCC, for which the binding signal worked out at 0.239 E-score.

As for ATATTTCA, the binding signal amounted to 3.5e-05 E-score. The value for CCTCTCGA was 0.17 E-score; that for AGCGAAAC was -0.216 E-score; that for TACCACGA was 0.0102 E-score. For CGGGCCGA, the binding signal was -0.0991 E-score. CAACGGAC: the binding signal is -0.0589 E-score.

With CTAGACCC, the binding signal was found to be 0.184 E-score. The value for GTGGTTCA was -0.112 E-score.

In the case of CGCCAGCC, the binding signal was -0.0818 E-score. The same measure for CGTCGCCC: 0.0483 E-score. The same measure for GACACTAA: 0.369 E-score; for CTACCATA: -0.0068 E-score; for TCGCCAGA: -0.169 E-score. The same measure for AAGCGGGG: 0.128 E-score; for GGAATTAC: -0.0938 E-score; for GAGAAGCA: -0.0815 E-score. With CGAAGTCA, the binding signal was -0.143 E-score. As for CAGTACTA, the binding signal was -0.0974 E-score. The same measure for GAGATGGA: -0.0177 E-score; for CGGCCAGA: -0.0354 E-score. The value for CTCGTTCA was 0.0563 E-score; that for AATGCAGA was -0.0643 E-score. The value for CTAAGTTC was -0.293 E-score; that for GGCCATAA was -0.0742 E-score. On to AGACCCCC, for which the binding signal came to 0.214 E-score.

AGCAAAGC: the binding signal was -0.253 E-score. The value for AAAAGTCA was -0.156 E-score; that for CTTGCCAC was -0.0915 E-score.

As to ACCCGTGG, the binding signal stood at 0.118 E-score. The same measure for CGGCATAA: -0.0281 E-score; for AGCAGACC: -0.281 E-score; for CAACGATC: -0.12 E-score.

For CATGGGCG, the binding signal is -0.0212 E-score. In the case of ACATCCGC, the binding signal is 0.0624 E-score. The same measure for GGCACGAC: -0.101 E-score; for ACGTAACA: 0.199 E-score; for CCGGACGG: -0.102 E-score. The value for AGGTAGGC was -0.081 E-score. The same measure for CTATTTAA: -0.117 E-score; for CATTTTTC: -0.128 E-score; for CTGATGCA: -0.191 E-score.

As to ACAAACCT, the binding signal is -0.0653 E-score. The same measure for CTATAGTA: 0.00653 E-score; for AAGTGCCG: -0.246 E-score; for GACTAAGA: -0.0724 E-score.

With AGGAAGTG, the binding signal worked out at 0.168 E-score. The value for GCTGACAC was 0.444 E-score; that for CGTATGTA was -0.0841 E-score; that for CTGGAGCC was -0.141 E-score. The value for ATCACACA was 0.125 E-score; that for GATTAAAC was -0.0654 E-score. As for GATCCGCC, the binding signal is 0.0707 E-score. The value for CACTTTCC was 0.0583 E-score.

On to ACATCCCC, for which the binding signal came to 0.0676 E-score. The value for CCAAGAAC was -0.0512 E-score.
